Reference: the RNAGym collection of RNA variant scans (doi:10.7554/elife.90254)
The source gives no read counts; variants with many changes may rest on few reads.

B1: LINE1-mini (parent)
chain: GGCAGAGCUCAACACAGCGUGGCAAAGUGGCUGUGGCUAGACUGCC

Variants of: B1
Assay: self-cleavage, relative activity (ratio to wild type); higher = more cleavage; in vitro, sequencing; the parent is a self-cleaving ribozyme

Variant	self-cleavage
G1U A11U G36C C46A	0.04
G1C U20A G35A	0.04
G1U C3A G5U G7C C15G	0.28
G1U C8G U34A G44U	0.02
G1U C3U A12U C18A	0.14
G1U A6G C18U C42G	0
G1U A6G G29A	0.06
G1U A6G G29U	0.06
G1U C8U U34G	0.05
G1C G27U G40A	0
G1U C3A G7C G19U A26U	0.3
G1U C10U A16G G21C G35A A39U	0.02
G1C U9C U43A	0.01
G1U A11C A26U	0.05
G1U C3G A24G C42U	0.34
G1U A12G G21C U28A	0
G1U A14C C18G G27U	0.02
G1U A4C C8A C46G	0.11
G1U C10G G22C C23A C31A	0
G1U A11C G44A	0.02
G1U A11U C23U	0.06
G1U A4C C8A A12C C23A U28A	0.02
G1U C8A C45U	0.17
G1U A4C U43C	0.06

Variant	self-cleavage
G1U A24U C46A	0.62
G1U C10G G29C	0.01
G1U A24G G29C U32C	0.08
G1C U9C C13A G22U C23G	0.02
G1C G27U U32G C37A C42U C45G	0
G1C G22U C45U	0.15
G1U A25G G36A G44U	0.08
G1U A11U G35A	0.01
G1U A12U U38A	0.05
G1U A4U C37U A41C	0.03
G1U A12C G19A G40A	0.01
G1U C3A G17A G35C	0.27
G1C U9C C10U G36U C42G C45G	0.01
G1U C8U C13G A16U G29U	0.05
G1U C10U A39G	0.04
G1U C3U G7C U32C	0.05
G1U C8G A12U G19C A41C	0.03
G1U A14U G36C C46U	0.03
G1U C3A G36A	2
G1U A6C C45A	0.09
G1U A4U C45A	0.05
G1U C3U A12G G33U U34G	0.13
G1U A24G G29U	0.48
G1U C10A A14U U20A	0

Variant	self-cleavage
G1U C10A C31A U34A C46G	0.01
G1U C3U C8A G33C	0.16
G1C G35A U43G	0
G1U A25C G40A U43C	0.01
G1C U9A G40A C46U	0.01
G1U A6C C10A U34G C46A	0.01
G1U A6G G44C	0.01
G1U A6C G7A C15A A24C A25G	0.01
G1U C3A C8G G22A G36U	0.13
G1U C8G C10A A26C	0.01
G1U C3A A41U	0.22
G1U C10A G21U A41G	0.03
G1U C10A G17U	0.02
G1U A4G U32C	0.11
G1U A6G C15U G27C C37U	0.07
G1U A6G G7C G27C	0.03
G1C U9G U43C	0.01
G1U A12G A26U G30U A39U	0.02
G1U A16G U20C C46G	0.41
G1U C10G G27C C46U	0.01
G1U C3G A6U C8U A16C G21C C46G	0.06
G1U A24G G36A A41G	0.04
G1U A12G C18U A24G A25U C37G A41U	0.02
G1C G27C G36A	0.16

Variant	self-cleavage
G1U C8G G22C A26C A39G	0.01
G1U C10G G29U A39U	0.05
G1U C3U C8U G19U	0.68
G1U A11U A12G G17U G21U G30C C45A	0.02
G1U A12G C37A	0.05
G1U C3U C13G	0.15
G1U C10G A16G C18G U28A G33U	0
G1U C3G C37G	0.04
G1C U20A G22A A41G	0.03
G1U A16U G44U C46A	0.02
G1U A11C C46U	0.06
G1U A16U G17A G40U	0.06
G1C U34G G40C	0.01
G1C U9G G30A C31A	0
G1U A16G G19U G27A	0.1
G1U A16U G35A	0.05
G1U A6G G7U C10U G22A G27C G36A	0.04
G1C G22U A39C U43C C45U	0
G1U A11U C15A C23A	0.01
G1U A11C G27U G33C	0
G1U A6C C10A A11C A16G	0.01
G1U C3U C15G	0.03
G1U C3G G21U	0.07
G1C U38G G44U	0.02

Variant	self-cleavage
G1U C10A C31G G40U	0.01
G1U C8G A12C U20A G36A	0.01
G1U A4C G19C	0.05
G1C G30C G44C C45U	0.02
G1C U9A G27A G30C	0.11
G1U C3U G5U A11G A14G A25G C42A	0.01
G1C U20A C23G U32A	0.01
G1U A14C A25C U34G	0.05
G1U A4U C10U A16U U32G G36U	0.05
G1U C3G C10G C18G	0
G1C U9G U20C	0
G1C U9C A26C G44C	0.03
G1U C3U G5U A24G	0.18
G1U A26U G29C U43A	0.01
G1U A11G G29A C42G	0
G1U A12C G36C	0.01
G1C U32C C42U	0.01
G1U C8G U9C	0
G1U C10G A25C G36A A41G	0.02
G1U C10A G17A A24U G44U	0.02
G1U C8A C18G	0.22
G1U A4G C18G A25C	0.02
G1U C3G A24U U34A U38G G40U	0.05
G1U C3U A39U A41G	0.03

Variant	self-cleavage
G1U A12G G27C U28C	0.01
G1U C8A A11C	0.01
G1U C8U C23A U38G G40U	0.01
G1U A6U G40A	0.06
G1U C8U U32C	0.15
G1C G33C G40C A41U	0.01
G1U A4G A24U	0.17
G1U A26C A39G	0.01
G1U C8U U9C U43G	0.02
G1U C8G C10A	0
G1C U9G G27C G30C	0.01
G1U A14C A24C	0.09
G1U C8U U38C	0.01
G1U C10A G19C U28A	0.02
G1U A4C G19U G30A U32A U43A	0
G1U C3U G40A C46U	0.09
G1U A16U C46A	0.04
G1U A16U G33U	0.06
G1C G33U A39G	0.01
G1U A6U G7U C8U	0.16
G1U A26G G30A	1.49
G1U A26G G27C U43G C45U	0.09
G1U A26C G27C C37U	0.01
G1C G29C G33C G35U	0.01

Variant	self-cleavage
G1U A4U C15U G35U	0.22
G1U A14G C45A	0.05
G1U A16C C23G G29U	0.09
G1U A4U G29U	0.24
G1U C8A C18U U34A	0.05
G1C G30C G40C	0.05
G1U A14G C15U C18G G22C C23G U38C C42U	0.02
G1C G40A C46A	0
G1U A6U C13U	0
G1U A11U A14G	0.04
G1U A4C C13G A26G G29C G33A	0.01
G1U A4C A11G A26G A39G	0.01
G1C U9C A12G U28A U38A G40C	0.01
G1U C3G C23A	0.2
G1U A6U C37G G40U	0.02
G1U A11U C18U G21U G27U C37U C45A	0
G1U A4G G7A A24G C31A G36A	0.18
G1U A25U U32G U38A G44A	0.09
G1C U20G C23G G30A	0.04
G1U C3U U20A G40A C42U U43G	0.17
G1U C3U C8G C10G C37G C45A	0.02
G1U C10A A16C	0.04
G1U A6G C10G A12U G33C	0.02
